{
  "source": "paper PMC4336329",
  "about": "(PLoS ONE, 2015)",
  "note": "In all, about 310,000 compounds went through this assay and about 14,000 (4.5%) showed an effect of 50% or more. Effects have a minus sign here. The list shows a part of the results.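 Further: peak tail current of the secondary pulse compared with the same well before compound.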",
  "data": [
    {"target": "human ether-à-go-go-related gene (hERG) potassium channel (human, UniProt Q12809)", "sequence (Q12809 whole entry, looked up)": "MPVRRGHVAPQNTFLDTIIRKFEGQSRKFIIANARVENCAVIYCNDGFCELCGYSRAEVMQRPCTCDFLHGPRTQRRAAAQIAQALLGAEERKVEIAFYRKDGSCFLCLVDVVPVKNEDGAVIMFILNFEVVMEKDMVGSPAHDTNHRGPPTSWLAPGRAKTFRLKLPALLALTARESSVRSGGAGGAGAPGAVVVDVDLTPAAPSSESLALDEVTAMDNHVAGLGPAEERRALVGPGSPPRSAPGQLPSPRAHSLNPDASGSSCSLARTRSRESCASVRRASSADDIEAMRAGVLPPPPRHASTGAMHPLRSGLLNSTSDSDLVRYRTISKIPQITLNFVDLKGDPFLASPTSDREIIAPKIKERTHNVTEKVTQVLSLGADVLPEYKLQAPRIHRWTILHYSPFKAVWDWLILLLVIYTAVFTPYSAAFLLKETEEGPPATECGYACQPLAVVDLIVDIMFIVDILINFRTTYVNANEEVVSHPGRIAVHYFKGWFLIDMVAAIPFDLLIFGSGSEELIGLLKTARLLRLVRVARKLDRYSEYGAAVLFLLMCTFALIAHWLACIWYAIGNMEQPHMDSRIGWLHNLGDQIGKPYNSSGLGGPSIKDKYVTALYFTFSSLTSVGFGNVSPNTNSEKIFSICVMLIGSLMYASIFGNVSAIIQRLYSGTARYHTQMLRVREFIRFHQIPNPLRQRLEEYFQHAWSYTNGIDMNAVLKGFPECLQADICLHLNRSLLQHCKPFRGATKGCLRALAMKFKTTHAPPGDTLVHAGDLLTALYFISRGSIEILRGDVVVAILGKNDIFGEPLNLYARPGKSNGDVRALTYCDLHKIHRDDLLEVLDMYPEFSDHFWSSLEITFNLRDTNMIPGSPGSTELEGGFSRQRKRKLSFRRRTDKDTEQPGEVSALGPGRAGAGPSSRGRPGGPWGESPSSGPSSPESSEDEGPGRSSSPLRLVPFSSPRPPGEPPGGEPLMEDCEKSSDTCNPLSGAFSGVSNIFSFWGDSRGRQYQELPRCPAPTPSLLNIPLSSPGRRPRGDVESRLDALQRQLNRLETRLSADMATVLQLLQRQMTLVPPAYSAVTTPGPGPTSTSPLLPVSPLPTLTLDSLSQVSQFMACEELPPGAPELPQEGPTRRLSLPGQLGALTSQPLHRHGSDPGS", "experiment": "primary screen, population patch clamp on CHO cells stably expressing hERG", "units": {"hERG current change (%, negative = inhibition) at 10uM": "%"}, "values": [
      {"compound": "O=C(NCCN1CCOCC1)c1ccc2c(c1)N(Cc1ccccc1F)C(=O)c1ccccc1S2(=O)=O", "hERG current change (%, negative = inhibition) at 10uM": 12.5},
      {"compound": "Cn1cccc1C(=O)NC(=O)COC(=O)c1ccc(O)cc1", "hERG current change (%, negative = inhibition) at 10uM": 0.666},
      {"compound": "CCC1CCCCN1S(=O)(=O)c1ccc(NC(=O)c2snnc2C)cc1", "note": "(stereo not drawn)", "hERG current change (%, negative = inhibition) at 10uM": -0.105},
      {"compound": "Cc1cc(C(=O)OCn2nnc3ccccc3c2=O)c(C)o1", "hERG current change (%, negative = inhibition) at 10uM": -6.92},
      {"compound": "CN(CC(=O)Nc1ccccc1Cl)C(=O)COC(=O)C1CC1", "hERG current change (%, negative = inhibition) at 10uM": -2.87},
      {"compound": "CCN(CC)c1ccc(/C=C2/C(=O)c3ccc(C(=O)O)cc3C2=O)cc1", "hERG current change (%, negative = inhibition) at 10uM": 2.24},
      {"compound": "Cc1cc(/C=C(\\C#N)C(=O)Nc2ccccc2)c(C)n1-c1cccnc1", "hERG current change (%, negative = inhibition) at 10uM": 8.27},
      {"compound": "CC(C)c1ccc(N(C(=O)CNC(=O)c2ccco2)C(C(=O)NC2CCCC2)c2cccnc2)cc1", "note": "(stereo not drawn)", "hERG current change (%, negative = inhibition) at 10uM": -5.02},
      {"compound": "FC(F)(F)c1cccc(N2CCN(C(=S)NC3CCCCC3)CC2)c1", "hERG current change (%, negative = inhibition) at 10uM": -0.288},
      {"compound": "CSC1=N/C(=C\\c2ccccc2F)C(=O)S1", "hERG current change (%, negative = inhibition) at 10uM": -3.24},
      {"compound": "CC1CN(C2CCN(C(=O)COc3ccccc3)CC2)CC(C)O1", "note": "(stereo not drawn)", "hERG current change (%, negative = inhibition) at 10uM": 3.57},
      {"compound": "CCCCC1CCC(C(=O)N(CCCC)c2c(N)n(CCCC)c(=O)[nH]c2=O)CC1", "note": "(stereo not drawn)", "hERG current change (%, negative = inhibition) at 10uM": -2.89},
      {"compound": "CCn1c2ccccc2c2cc(CC(N)=O)ccc21", "hERG current change (%, negative = inhibition) at 10uM": 5.3},
      {"compound": "C1CN(c2nc3nonc3n3nnnc23)CCO1", "hERG current change (%, negative = inhibition) at 10uM": 6.05},
      {"compound": "COc1ccc(C2=NN(C(=O)C(O)c3ccccc3)C(O)(C(F)(F)F)C2)cc1", "note": "(stereo not drawn)", "hERG current change (%, negative = inhibition) at 10uM": -0.328},
      {"compound": "COC(=O)C1CCN(Cc2c(C(=O)N3C[C@@H](C)O[C@@H](C)C3)nc3ccc(Cl)cn23)CC1", "hERG current change (%, negative = inhibition) at 10uM": 21.1},
      {"compound": "COc1c([N+](=O)[O-])c(=O)oc2ccccc12", "hERG current change (%, negative = inhibition) at 10uM": 15.4},
      {"compound": "Cc1cccc(-c2sc(Nc3ccccc3)n[n+]2-c2ccc(F)cc2)c1.[Cl-]", "hERG current change (%, negative = inhibition) at 10uM": 21.7},
      {"compound": "Cc1ccc(NC(=O)c2cc(S(=O)(=O)N3CCCCC3)cs2)cc1", "hERG current change (%, negative = inhibition) at 10uM": 8.89},
      {"compound": "Cc1ccc(N(C)C(=O)N2CCN(S(=O)(=O)c3ccc(C)cc3)CC2)cc1", "hERG current change (%, negative = inhibition) at 10uM": -33.3},
      {"compound": "Cc1ccc(-c2nc3ccc(Cl)cc3c(=O)n2O)cc1", "hERG current change (%, negative = inhibition) at 10uM": 21.9},
      {"compound": "Cc1cc(C(=O)CSc2nnc3c(Cl)cc(Cl)cn23)c(C)n1C", "hERG current change (%, negative = inhibition) at 10uM": 10.3},
      {"compound": "O=c1[nH]nc(Cc2ncc(C(F)(F)F)cc2Cl)c2ccccc12", "hERG current change (%, negative = inhibition) at 10uM": 8.74},
      {"compound": "NC(=O)C1(N2CCCCC2)CCN(C2CC(=O)NC2=O)CC1", "note": "(stereo not drawn)", "hERG current change (%, negative = inhibition) at 10uM": -29.5}
    ]}
  ]
}
